Laboratory results reported in patent US9585886B2, “ASK1 inhibiting pyrrolopyrimidine derivatives” (CALCHAN LIMITED, priority 2010, dated 2017).

System: CCI-induced mechanical allodynia
Details: rats, 3 mg/kg po, 30 mg/kg po bid, day 20 to day 27; measured 1 hour post morning dose on days 22, 25 and 27

Structure (SMILES): Cc1c[nH]c2ncnc(N3CCC(NC(=O)c4ccccc4)CC3)c12 [Example 17]
- effect on mechanical allodynia in the CCI model (FIG. 3, Von Frey hairs, AUC): partially reverses mechanical allodynia
